Assay results reported in the supplement of paper PMC4604168 (melanoma cell lines).
This is one part of the list. Most values come without repeats; read them as rough.

Assays:
Test in all cases: cell count relative to DMSO control; melanoma cells; higher = more viable cells
Conditions in all cases: library dose: standard library concentration; 72 h
G361 = tested on: G361
IPC-298 = tested on: IPC-298
IST-MEL1 = tested on: IST-MEL1
LB2518-MEL = tested on: LB2518-MEL
LOXIMVI = tested on: LOXIMVI
MEL-HO = tested on: MEL-HO
MZ2-MEL = tested on: MZ2-MEL
MeWo = tested on: MeWo
RPMI7951 = tested on: RPMI7951
RVH-421 = tested on: RVH-421
SkMel28 = tested on: SkMel28
SkMel2 = tested on: SkMel2
SkMel30 = tested on: SkMel30
SkMel5 = tested on: SkMel5
UACC257 = tested on: UACC257
UACC62 = tested on: UACC62
WM115 = tested on: WM115
WM1716 = tested on: WM1716
WM1745 = tested on: WM1745
WM3526 = tested on: WM3526
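Also: cells treated in 1,536-well plates, then fixed and DAPI-stained, with nuclei counted from automated high-throughput microscope images.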

SMILES	cell count (G361) [%]	cell count (IPC-298) [%]	cell count (IST-MEL1) [%]	cell count (LB2518-MEL) [%]	cell count (LOXIMVI) [%]	cell count (MEL-HO) [%]	cell count (MZ2-MEL) [%]	cell count (MeWo) [%]	cell count (RPMI7951) [%]	cell count (RVH-421) [%]	cell count (SkMel28) [%]	cell count (SkMel2) [%]	cell count (SkMel30) [%]	cell count (SkMel5) [%]	cell count (UACC257) [%]	cell count (UACC62) [%]	cell count (WM115) [%]	cell count (WM1716) [%]	cell count (WM1745) [%]	cell count (WM3526) [%]
Nc1ccn([C@@H]2O[C@H](CO)[C@@H](O)C2(F)F)c(=O)n1 [gemcitabine] + CC1(C)NC(=O)N(c2ccc([N+](=O)[O-])c(C(F)(F)F)c2)C1=O [nilutamide] (first compound 0.002 µM, partner dose 5 µM)	52.1	55.8	50.6	72.6	75.7	58.4	91.6	49.6	54.5	92.8	107	119	117	95.1	89	99.5	88.9	73.7	51.6	83.1
Nc1nc(F)nc2c1ncn2[C@@H]1O[C@H](CO)[C@@H](O)[C@@H]1O [fludarabine] + NC(=O)Nc1cc(-c2cccc(F)c2)sc1C(=O)N[C@H]1CCCNC1 [AZD7762] (first compound 1 µM, partner dose 0.1 µM)	70	55.8	68.7	52.5	74.7	39.5	121	51.8	14.7	81.3	1.29	2.08	17.8	33	30.6	44	62.1	67.8	51.4	19.2
CC(=O)O[C@@]12CO[C@@H]1C[C@H](O)[C@@]1(C)C(=O)[C@H](O)C3=C(C)[C@@H](OC(=O)[C@H](O)[C@@H](NC(=O)OC(C)(C)C)c4ccccc4)C[C@@](O)([C@@H](OC(=O)c4ccccc4)[C@H]21)C3(C)C [Docetaxel] + O=C(CCCCCCC(=O)Nc1ccccc1)NO [vorinostat] (first compound 0.0005 µM, partner dose 0.4 µM)	12.5	55.6	43.6	52.2	48.2	41.9	54.1	30.7	18.7	56.2	23.9	15.6	43.6	31.2	46.2	70.1	50.2	32.9	51.4	32.6
CO[C@H]1C[C@@H]2CC[C@@H](C)[C@@](O)(O2)C(=O)C(=O)N2CCCC[C@H]2C(=O)O[C@H]([C@H](C)C[C@@H]2CC[C@@H](OCCO)[C@H](OC)C2)CC(=O)[C@H](C)/C=C(\C)[C@@H](O)[C@@H](OC)C(=O)[C@H](C)C[C@H](C)/C=C/C=C/C=C/1C [everolimus] + Nc1cccc2c1CN(C1CCC(=O)NC1=O)C2=O [lenalidomide] (first compound 0.1 µM, partner dose 5 µM)	63.3	60.5	85.7	62.4	66.7	72.7	82.7	69.9	93.7	92	58.1	68.8	61.8	59.9	83.9	84.3	74.8	69.4	88.6	93.2
CC(=O)O[C@@]12CO[C@@H]1C[C@H](O)[C@@]1(C)C(=O)[C@H](O)C3=C(C)[C@@H](OC(=O)[C@H](O)[C@@H](NC(=O)OC(C)(C)C)c4ccccc4)C[C@@](O)([C@@H](OC(=O)c4ccccc4)[C@H]21)C3(C)C [Docetaxel] + Cn1c(Nc2ccc(C(F)(F)F)cc2)nc2cc(Oc3ccnc(-c4ncc(C(F)(F)F)[nH]4)c3)ccc21 [CHIR265] (first compound 0.0005 µM, partner dose 0.4 µM)	3.63	25	44.4	17.6	89.4	31.3	19.8	19.1	20.4	30.9	13.5	10.9	38.1	29.5	61.5	32.1	14.1	37.6	24.6	26.7
CC(=O)O[C@@]12CO[C@@H]1C[C@H](O)[C@@]1(C)C(=O)[C@H](O)C3=C(C)[C@@H](OC(=O)[C@H](O)[C@@H](NC(=O)OC(C)(C)C)c4ccccc4)C[C@@](O)([C@@H](OC(=O)c4ccccc4)[C@H]21)C3(C)C [Docetaxel] + CO[C@H]1C[C@@H]2CC[C@@H](C)[C@@](O)(O2)C(=O)C(=O)N2CCCC[C@H]2C(=O)O[C@H]([C@H](C)C[C@@H]2CC[C@@H](OCCO)[C@H](OC)C2)CC(=O)[C@H](C)/C=C(\C)[C@@H](O)[C@@H](OC)C(=O)[C@H](C)C[C@H](C)/C=C/C=C/C=C/1C [everolimus] (first compound 0.0005 µM, partner dose 0.1 µM)	12.6	27.7	31.3	32.6	44.8	43.2	37.5	26.7	26.4	44.6	11.4	15.9	35.6	23.3	61.8	47.9	25.7	32.9	35.9	37.7
CC(=O)O[C@@]12CO[C@@H]1C[C@H](O)[C@@]1(C)C(=O)[C@H](O)C3=C(C)[C@@H](OC(=O)[C@H](O)[C@@H](NC(=O)OC(C)(C)C)c4ccccc4)C[C@@](O)([C@@H](OC(=O)c4ccccc4)[C@H]21)C3(C)C [Docetaxel] + C[C@@H]1CCN(C(=O)CC#N)C[C@@H]1N(C)c1ncnc2[nH]ccc12 [CP690550] (first compound 0.0005 µM, partner dose 5 µM)	19.3	57.4	36.2	44.5	50.8	45.3	58.9	32.3	20.7	30.2	25.6	29.5	50.4	46.2	61.4	65.3	52	42.7	55.3	45
CC(=O)O[C@@]12CO[C@@H]1C[C@H](O)[C@@]1(C)C(=O)[C@H](O)C3=C(C)[C@@H](OC(=O)[C@H](O)[C@@H](NC(=O)OC(C)(C)C)c4ccccc4)C[C@@](O)([C@@H](OC(=O)c4ccccc4)[C@H]21)C3(C)C [Docetaxel] + Cn1cncc1[C@@](N)(c1ccc(Cl)cc1)c1ccc2c(c1)c(-c1cccc(Cl)c1)cc(=O)n2C [tipifarnib] (first compound 0.0005 µM, partner dose 0.05 µM)	13.9	36.6	40.1	41.6	52.2	46.6	45.1	21.7	21.6	43.4	15.9	21.6	42.7	27.3	56.9	49.6	31.7	31.6	32.2	31.1
CO[C@H]1C[C@@H]2CC[C@@H](C)[C@@](O)(O2)C(=O)C(=O)N2CCCC[C@H]2C(=O)O[C@H]([C@H](C)C[C@@H]2CC[C@@H](OCCO)[C@H](OC)C2)CC(=O)[C@H](C)/C=C(\C)[C@@H](O)[C@@H](OC)C(=O)[C@H](C)C[C@H](C)/C=C/C=C/C=C/1C [everolimus] + C[C@@H]1CCN(C(=O)CC#N)C[C@@H]1N(C)c1ncnc2[nH]ccc12 [CP690550] (first compound 0.1 µM, partner dose 5 µM)	66.9	83.5	73	67.9	86.5	79.4	88.1	73.8	74.7	91.7	54.5	63.5	68.8	52.9	91.5	68.2	62	67	99	71.5
CO[C@H]1C[C@@H]2CC[C@@H](C)[C@@](O)(O2)C(=O)C(=O)N2CCCC[C@H]2C(=O)O[C@H]([C@H](C)C[C@@H]2CC[C@@H](OCCO)[C@H](OC)C2)CC(=O)[C@H](C)/C=C(\C)[C@@H](O)[C@@H](OC)C(=O)[C@H](C)C[C@H](C)/C=C/C=C/C=C/1C [everolimus] + COc1cc2c(Oc3ccc4[nH]c(C)cc4c3F)ncnc2cc1OCCCN1CCCC1 [cediranib] (first compound 0.1 µM, partner dose 2 µM)	52.9	70.6	61.8	59.1	70.5	68.2	82.1	62.9	73.9	79.3	38.9	58	65.9	51.5	82.5	86	58.3	65.1	55.2	77.6
CC(=O)O[C@@]12CO[C@@H]1C[C@H](O)[C@@]1(C)C(=O)[C@H](O)C3=C(C)[C@@H](OC(=O)[C@H](O)[C@@H](NC(=O)OC(C)(C)C)c4ccccc4)C[C@@](O)([C@@H](OC(=O)c4ccccc4)[C@H]21)C3(C)C [Docetaxel] + COCC[n+]1c2c(n(Cc3cnccn3)c1C)C(=O)c1ccccc1C2=O [YM155] (first compound 0.0005 µM, partner dose 0.002 µM)	17	31.3	39.8	22	36.9	39.9	23.9	26	24.4	57.5	18.4	23	45.4	41.2	29	57	35.6	39.9	42	39.7
CC(=O)O[C@@]12CO[C@@H]1C[C@H](O)[C@@]1(C)C(=O)[C@H](O)C3=C(C)[C@@H](OC(=O)[C@H](O)[C@@H](NC(=O)OC(C)(C)C)c4ccccc4)C[C@@](O)([C@@H](OC(=O)c4ccccc4)[C@H]21)C3(C)C [Docetaxel] + CC1(C)NC(=O)N(c2ccc([N+](=O)[O-])c(C(F)(F)F)c2)C1=O [nilutamide] (first compound 0.0005 µM, partner dose 5 µM)	13.7	41.8	31.4	34.1	43.7	41.3	39.8	23.9	15.1	56.6	19.8	14.3	34.9	21	46	43.9	26.5	27.5	32.4	38.2
CO[C@H]1C[C@@H]2CC[C@@H](C)[C@@](O)(O2)C(=O)C(=O)N2CCCC[C@H]2C(=O)O[C@H]([C@H](C)C[C@@H]2CC[C@@H](OCCO)[C@H](OC)C2)CC(=O)[C@H](C)/C=C(\C)[C@@H](O)[C@@H](OC)C(=O)[C@H](C)C[C@H](C)/C=C/C=C/C=C/1C [everolimus] + CS(=O)(=O)CCNCc1ccc(-c2ccc3ncnc(Nc4ccc(OCc5cccc(F)c5)c(Cl)c4)c3c2)o1 [lapatinib] (first compound 0.1 µM, partner dose 4 µM)	33.2	66.6	82.6	68.1	58	69.1	55.4	65.2	69.9	83.6	38.4	60.8	58.9	46.1	103	66	52.1	72.8	83.1	63
CC(=O)O[C@@]12CO[C@@H]1C[C@H](O)[C@@]1(C)C(=O)[C@H](O)C3=C(C)[C@@H](OC(=O)[C@H](O)[C@@H](NC(=O)OC(C)(C)C)c4ccccc4)C[C@@](O)([C@@H](OC(=O)c4ccccc4)[C@H]21)C3(C)C [Docetaxel] + CO[C@@H]1[C@H](N(C)C(=O)c2ccccc2)C[C@H]2O[C@]1(C)n1c3ccccc3c3c4c(c5c6ccccc6n2c5c31)C(=O)NC4 [Midostaurin] (first compound 0.0005 µM, partner dose 0.4 µM)	21.7	35.8	27.9	36.7	43.6	43.8	45.5	25.1	39.5	51.2	33.9	39.3	64.5	35.5	53.5	45.4	45.1	36.8	23.3	34.5
